Reference: publication PMC4336329 (PLoS ONE, 2015)
Among all 310,000 compounds or so, about 14,000 (4.5%) showed an effect of 50% or more. Effects have a minus sign here. This is one part of the list.

biological target: human ether-à-go-go-related gene (hERG) potassium channel (human, UniProt Q12809); test: primary screen, population patch clamp on CHO cells stably expressing hERG
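Also: peak tail current of the secondary pulse compared with the same well before compound.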

Chain of human ether-à-go-go-related gene (hERG) potassium channel (Q12809 whole entry, looked up): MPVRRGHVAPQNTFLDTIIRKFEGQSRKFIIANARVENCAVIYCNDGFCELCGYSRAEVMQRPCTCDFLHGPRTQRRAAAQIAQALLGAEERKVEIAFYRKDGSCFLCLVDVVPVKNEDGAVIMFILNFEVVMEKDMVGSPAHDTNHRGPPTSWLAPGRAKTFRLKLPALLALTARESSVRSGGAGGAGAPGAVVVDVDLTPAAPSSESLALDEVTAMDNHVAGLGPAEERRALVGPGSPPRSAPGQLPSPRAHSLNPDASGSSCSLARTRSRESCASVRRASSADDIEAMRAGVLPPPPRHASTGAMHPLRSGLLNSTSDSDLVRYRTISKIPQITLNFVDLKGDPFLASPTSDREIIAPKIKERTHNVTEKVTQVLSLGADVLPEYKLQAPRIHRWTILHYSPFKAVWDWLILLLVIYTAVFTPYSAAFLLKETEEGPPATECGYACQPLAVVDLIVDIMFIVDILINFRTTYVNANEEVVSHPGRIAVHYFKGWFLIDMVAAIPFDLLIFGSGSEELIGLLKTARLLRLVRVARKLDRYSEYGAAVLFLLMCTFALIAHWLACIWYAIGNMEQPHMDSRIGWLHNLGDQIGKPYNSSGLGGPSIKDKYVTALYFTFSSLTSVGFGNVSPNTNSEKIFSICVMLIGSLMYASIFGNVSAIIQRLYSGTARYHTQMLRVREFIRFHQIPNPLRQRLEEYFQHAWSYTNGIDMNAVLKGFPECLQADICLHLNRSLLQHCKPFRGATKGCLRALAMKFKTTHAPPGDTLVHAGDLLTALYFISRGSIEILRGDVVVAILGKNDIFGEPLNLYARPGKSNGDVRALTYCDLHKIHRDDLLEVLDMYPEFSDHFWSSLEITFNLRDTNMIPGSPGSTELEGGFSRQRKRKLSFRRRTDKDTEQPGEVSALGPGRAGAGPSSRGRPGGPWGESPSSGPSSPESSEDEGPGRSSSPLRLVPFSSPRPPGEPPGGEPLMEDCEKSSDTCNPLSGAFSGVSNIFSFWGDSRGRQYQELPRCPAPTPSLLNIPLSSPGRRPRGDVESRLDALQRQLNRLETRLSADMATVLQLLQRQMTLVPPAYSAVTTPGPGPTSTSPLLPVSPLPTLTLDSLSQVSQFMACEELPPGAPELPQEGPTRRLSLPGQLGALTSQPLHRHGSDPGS

Compound | hERG current change (%, negative = inhibition) at 10uM [%]
Cc1ccc(OCC(=O)NCCCNC(=O)c2cccnc2)cc1C | 5.12
CC(=O)N=C(N)Sc1nc2ccccc2[nH]1 | -8.83
CC(=O)c1ccc(OC(=O)C2CC(=O)N(c3cccc(C)c3)C2)cc1 (stereo not drawn) | -1.85
Cc1ccc(C(=O)Cn2nnc3ccccc32)cc1C | -1.59
O=C(CSc1nc2ccccc2c(=O)[nH]1)NCc1ccc(Cl)cc1 | 2.39
CCOc1ccc2cc(C#N)c(SCC(=O)N3CCC(C)CC3)nc2c1 | 1.48
COc1ccc(CC(=O)NNC(=O)COc2ccc(C)cc2)cc1S(=O)(=O)N1CCOCC1 | 13.5
CCc1nnc(NC(=O)c2ccc3c(=O)n4c(nc3c2)CCCCC4)s1 | -7.28
COc1ccc(CCNC(=O)c2ccc(=O)[nH]c2)cc1OC | 18
COc1ccc(C)cc1NC(=O)c1ccc(CN2CCc3ccccc3C2)cc1 | 13.7
CCCCNS(=O)(=O)c1cccc(S(=O)(=O)N2CCCC2)c1 | -21.1
Cn1c(Cc2cccs2)nnc1SCC(=O)Nc1ccccc1F | 1.93
COc1ccccc1C(=O)N(CCC1CCCN1C)c1nc2ccccc2s1 (stereo not drawn) | -50.9
CC1CCN(C(=O)COC(=O)c2ccc(Br)o2)CC1 | 14.7
CN(C)c1ccc(CN(C(=O)C2COc3ccccc3O2)C2CCS(=O)(=O)C2)cc1 (stereo not drawn) | -4.46
CCCC(=O)NC(Nc1ccccc1OC)C(Cl)(Cl)Cl (stereo not drawn) | -10.9
COc1ccc(S(=O)(=O)N(CC(=O)NCc2ccncc2)c2ccc(C)cc2)cc1Br | -30
Cc1cc(N(C(=O)c2ccco2)C(C(=O)NC2CCCCC2)c2ccccc2)ccc1-n1cnnn1 (stereo not drawn) | -18.4
COC(=O)CNC(=O)c1cn(CCC#N)nc1-c1ccc(F)cc1 | 4.27

Compound | hERG current change (%, negative = inhibition) at 10uM [%]
OCCNC(=S)Nc1ccc(Oc2ccccc2)cc1 | 14.7
Cc1ccc(-c2noc(CN3C(C)CCCC3C)n2)cc1 (stereo not drawn) | 2.64
Nc1nc(F)nc2c1ncn2[C@@H]1O[C@H](CO)[C@@H](O)[C@@H]1O | 21.2
C/C(=N\NC(=O)c1ccccc1)c1ccccc1F | -14
CC(C)(O)c1[nH]c2ccc(C#N)cc2c1C(C)(C)O | 6.98
CCN1C(=O)/C(=C2\C=Cc3cc(C)ccc3N2CC)OC1=S | 0.13
COc1ccc(NS(=O)(=O)c2cccc(C(=O)NCCCn3ccnc3)c2)cc1 | 17.3
CN1C(=O)C(=Cc2cn(CC(=O)N3CCCC3)c3ccccc23)C(=O)N(C)C1=O | 0.608
CCCN(CCC)S(=O)(=O)c1ccc(N2CCCC2=O)c([N+](=O)[O-])c1 | -19.3
O/N=C(\c1ccccc1)c1nccc2ccccc12 | 8.11
CC1(C)C(=O)Nc2ccccc2N1C(=O)COC(=O)c1cc([N+](=O)[O-])ccc1N | 13.7
Brc1ccc(CNCCCSc2ncccn2)cc1.Cl | -33.4
C=CCNC(=O)NC(=O)COC(=O)/C(C#N)=C/c1ccc(OC)cc1 | 7.97
CC1CC(=O)C2=C(C1)OC(N)=C(C#N)C2c1coc2ccccc2c1=O (stereo not drawn) | -0.732
CC1CCN(C(=O)c2nc[nH]c2C(=O)OCCNC(=O)OC(C)(C)C)CC1 | 4.23
CC(=O)Nc1ccc(SC[C@H](Cc2ccccc2)N2CC[C@@H](O)CCC2=O)cc1 | -7.75
O=Cc1ccccc1-n1cncn1 | 9.96
COc1ccc([N+](=O)[O-])cc1N(CC(=O)NCCC1=CCCCC1)S(C)(=O)=O | -0.972
NNC(=O)c1nc[nH]c1C(=O)Nc1ccc(Cl)cc1C(=O)c1ccccc1 | 21.5

Compound | hERG current change (%, negative = inhibition) at 10uM [%]
COc1ccc(Cc2nnc(NS(=O)(=O)Cc3ccccc3)s2)cc1 | 8.96
Cc1cc(C(=O)CSc2n[nH]c(N)n2)c(C)n1-c1cc(F)ccc1F | -4.75
CC(=O)C1C(c2ccc([N+](=O)[O-])cc2)C2C(C)=NN=C2CC1(C)O (stereo not drawn) | 1.71
CCCn1cc(S(=O)(=O)CC(=O)Nc2ccc(OC)cc2OC)c2ccccc21 | -5.84
COc1ccc2cc(C#N)c(NC(C)C)nc2c1 | 18.6
CC(C)c1ccc(-c2nnn(CCC(=O)O)n2)cc1 | -2.31
CC(=O)C1=C(C)Nc2ncnn2C1c1ccc(O)cc1 (stereo not drawn) | 12.1
O=C(c1ccc(S(=O)(=O)N2CCCCCC2)cc1)N1CCC(CN2C(=O)c3cccc4cccc(c34)C2=O)CC1 | 5.96
O=C1SC(SCc2ccccc2)=N/C1=C\c1ccco1 | 3.04
O=C(O)CSCCOc1ccc(OCCSCC(=O)O)cc1 | 5.28
Cc1ccc(CN2CCN(Cc3cc4ccccc4o3)CC2CCO)cc1 (stereo not drawn) | -43.1
Clc1cnc(N/N=C/c2ccncc2)c(Cl)c1 | -6.08
COc1ccc(CC(NC(C)=O)C(=O)NC2CCN(c3nc(C)cc(C)c3C#N)CC2)c(OC)c1 (stereo not drawn) | -2.97
O=C(CNC(=S)N(Cc1ccccc1)Cc1cccnc1)NCCc1ccccc1 | -41.3
CCOC(=O)c1cccnc1NC(=O)c1ccncc1 | 25.3
CCN(CC)CCCNC(=O)c1cc2c(=O)n(CC)c3ccccc3c2s1 | -14.9
CCOC(=O)c1ccc(N(C(=O)c2cnccn2)C(C(=O)NC2CCCCC2)c2cn(C)nc2C)cc1 (stereo not drawn) | -48.2
CC(=O)c1cccc(NC(=O)CCCCCn2nnc3ccccc3c2=O)c1 | 2.81
Cc1ccc(C2/C(=C(\O)c3cnn(-c4ccccc4)c3C)C(=O)C(=O)N2CCN(C)C)o1 (stereo not drawn) | 14.6
